Test results: US10299477B2 (priority 2015, dated 2019)

Key:
[1] = tested on: Magnaporthe grisea; format: in vivo; conditions: 250 ppm spray, preventive; control value class
[2] = tested on: Phytophthora infestans; format: in vivo; conditions: 250 ppm spray (2.5 ml/pot), preventive; 5-10 days after inoculation; control value class
[3] = tested on: Colletotrichum orbiculare; conditions: 250 ppm spray (2.5 ml/pot), preventive; 6-10 days after inoculation; control value class

Row | SMILES | Test A control value (blast on rice) [1] | Test F control value (late blight on tomato) [2] | Test H control value (anthracnose on cucumber) [3]
1 | Cc1ccc(-c2cc(Br)c(=O)n(C)c2-c2c(F)cccc2F)cc1 [Compound 273] | H (H shows more than 50% of control values) | L (L shows 50% or less of control values) | L (L shows 50% or less of control values)
2 | Cc1ccc(-c2cc(Cl)c(=O)n(C)c2-c2c(F)cccc2F)cc1 [Compound 274] | H (H shows more than 50% of control values) | L (L shows 50% or less of control values) | H (H shows more than 50% of control values)
3 | CCn1c(-c2c(F)cccc2F)c(-c2cc(OCCC[Si](C)(C)C)ccc2Cl)ccc1=O [Compound 275] | L (L shows 50% or less of control values) | L (L shows 50% or less of control values) | L (L shows 50% or less of control values)
4 | Cn1c(-c2c(F)cccc2F)c(-c2cc(OCCC[Si](C)(C)C)ccc2Cl)ccc1=O [Compound 276] | L (L shows 50% or less of control values) | L (L shows 50% or less of control values) | L (L shows 50% or less of control values)
5 | CCn1c(-c2c(F)cccc2F)c(-c2cc(OCC(F)F)ccc2Cl)ccc1=O [Compound 277] | H (H shows more than 50% of control values) | L (L shows 50% or less of control values) | H (H shows more than 50% of control values)
6 | Cn1c(-c2c(F)cccc2F)c(-c2cc(OCC(F)F)ccc2Cl)ccc1=O [Compound 278] | H (H shows more than 50% of control values) | L (L shows 50% or less of control values) | H (H shows more than 50% of control values)
7 | CCn1c(-c2c(F)cccc2F)c(-c2ccc(Cl)cc2)cc(Br)c1=O [Compound 279] | H (H shows more than 50% of control values) | L (L shows 50% or less of control values) | L (L shows 50% or less of control values)
8 | Cn1c(-c2c(F)cccc2F)c(-c2ccc(Cl)cc2)ccc1=O [Compound 280] | H (H shows more than 50% of control values) | L (L shows 50% or less of control values) | H (H shows more than 50% of control values)
9 | CCCOc1cc(F)c(-c2c(-c3cc(OC)cc(OC)c3Cl)ccc(=O)n2C)c(F)c1 [Compound 281] | H (H shows more than 50% of control values) | L (L shows 50% or less of control values) | H (H shows more than 50% of control values)
10 | CCCCOc1cc(F)c(-c2c(-c3cc(OC)cc(OC)c3Cl)ccc(=O)n2C)c(F)c1 [Compound 282] | H (H shows more than 50% of control values) | L (L shows 50% or less of control values) | H (H shows more than 50% of control values)
11 | CCN1C(=O)CCC(c2cccc(C(F)(F)F)c2)=C1c1c(F)cccc1F [Compound 283] | L (L shows 50% or less of control values) | L (L shows 50% or less of control values) | L (L shows 50% or less of control values)
12 | CCn1c(-c2c(F)cccc2F)c(-c2cccc(C(F)(F)F)c2)ccc1=O [Compound 284] | L (L shows 50% or less of control values) | L (L shows 50% or less of control values) | L (L shows 50% or less of control values)
13 | Cn1c(-c2c(F)cccc2F)c(-c2ccc(Cl)cc2)cc(Br)c1=O [Compound 286] | H (H shows more than 50% of control values) | L (L shows 50% or less of control values) | L (L shows 50% or less of control values)
14 | CCn1c(-c2c(F)cccc2F)c(-c2cc(OC3CCCC3)ccc2Cl)ccc1=O [Compound 287] | H (H shows more than 50% of control values) | L (L shows 50% or less of control values) | L (L shows 50% or less of control values)
15 | Cn1c(-c2c(F)cccc2F)c(-c2cc(OC3CCCC3)ccc2Cl)ccc1=O [Compound 288] | L (L shows 50% or less of control values) | L (L shows 50% or less of control values) | L (L shows 50% or less of control values)
16 | Cn1c(-c2c(F)cccc2F)c(-c2ccc(Br)cc2)ccc1=O [Compound 289] | H (H shows more than 50% of control values) | L (L shows 50% or less of control values) | L (L shows 50% or less of control values)

Row | SMILES | Test A control value (blast on rice) [1] | Test F control value (late blight on tomato) [2] | Test H control value (anthracnose on cucumber) [3]
17 | Cn1c(-c2c(F)cccc2F)c(-c2ccc(Br)cc2)cc(Br)c1=O [Compound 290] | H (H shows more than 50% of control values) | L (L shows 50% or less of control values) | H (H shows more than 50% of control values)
18 | Cn1c(-c2c(F)cccc2F)c(-c2ccc(Br)cc2)cc(Cl)c1=O [Compound 291] | H (H shows more than 50% of control values) | L (L shows 50% or less of control values) | H (H shows more than 50% of control values)
19 | CCn1c(-c2c(F)cccc2F)c(-c2ccc(Br)cc2)ccc1=O [Compound 292] | H (H shows more than 50% of control values) | L (L shows 50% or less of control values) | H (H shows more than 50% of control values)
20 | CCn1c(-c2c(F)cccc2F)c(-c2ccc(Br)cc2)cc(Br)c1=O [Compound 293] | H (H shows more than 50% of control values) | L (L shows 50% or less of control values) | H (H shows more than 50% of control values)
21 | CCn1c(-c2c(F)cccc2F)c(-c2ccc(Br)cc2)cc(Cl)c1=O [Compound 294] | H (H shows more than 50% of control values) | L (L shows 50% or less of control values) | L (L shows 50% or less of control values)
22 | CCn1c(-c2c(F)cccc2F)c(-c2cc(OC3CCCCC3)ccc2Cl)ccc1=O [Compound 295] | L (L shows 50% or less of control values) | L (L shows 50% or less of control values) | L (L shows 50% or less of control values)
23 | Cn1c(-c2c(F)cccc2F)c(-c2cc(OC3CCCCC3)ccc2Cl)ccc1=O [Compound 296] | L (L shows 50% or less of control values) | L (L shows 50% or less of control values) | L (L shows 50% or less of control values)
24 | CCn1c(-c2c(F)cccc2F)c(-c2cc(OC(=O)OC)ccc2Cl)ccc1=O [Compound 297] | H (H shows more than 50% of control values) | L (L shows 50% or less of control values) | H (H shows more than 50% of control values)
25 | COC(=O)Oc1ccc(Cl)c(-c2ccc(=O)n(C)c2-c2c(F)cccc2F)c1 [Compound 298] | H (H shows more than 50% of control values) | L (L shows 50% or less of control values) | H (H shows more than 50% of control values)
26 | CCn1c(-c2c(F)cccc2F)c(-c2cccc(C(F)(F)F)c2)cc(Cl)c1=O [Compound 299] | H (H shows more than 50% of control values) | L (L shows 50% or less of control values) | L (L shows 50% or less of control values)
27 | CCN1C(=O)CCC(c2ccc(OC)cc2)=C1c1c(F)cccc1F [Compound 300] | H (H shows more than 50% of control values) | L (L shows 50% or less of control values) | L (L shows 50% or less of control values)
28 | CCn1c(-c2c(F)cccc2F)c(-c2ccc(OC)cc2)ccc1=O [Compound 301] | H (H shows more than 50% of control values) | H (H shows more than 50% of control values) | H (H shows more than 50% of control values)
29 | CCn1c(-c2c(F)cccc2F)c(-c2ccc(OC)cc2)cc(Cl)c1=O [Compound 302] | H (H shows more than 50% of control values) | L (L shows 50% or less of control values) | H (H shows more than 50% of control values)
30 | CCn1c(-c2c(F)cccc2F)c(-c2cc(OCC(C)=O)ccc2Cl)ccc1=O [Compound 303] | H (H shows more than 50% of control values) | L (L shows 50% or less of control values) | H (H shows more than 50% of control values)
31 | CC(=O)COc1ccc(Cl)c(-c2ccc(=O)n(C)c2-c2c(F)cccc2F)c1 [Compound 304] | H (H shows more than 50% of control values) | L (L shows 50% or less of control values) | L (L shows 50% or less of control values)
